From the supplement of paper PMC10126150 come the findings set out here.

The subject of the data set is ATP. Put plainly: switch fluorescence ratio, 500 uM ATP over buffer (Cy3 cluster intensity, sum of 5 cycles each) (fold (ratio)); higher = stronger signal-on switching upon ATP binding; sequences stand for … in TCGTCGGCAGCGTCAGATGTGTATAAGAGACAGTTTTTTTTTTTTTTTTTTTTTTTTT…TC. To be noted: aptamer strand: ATP DNA aptamer (quencher-CACCTGGGGGAGTATTGCGGAGGAAGG + anchor), 100 nM annealed; ATP concentration: 500 uM; one replicate. In short, it runs like this:
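Cy3-labelled switching-strand clusters on a modified Illumina MiSeq flow-cell were annealed to 100 nM quencher-labelled ATP aptamer, imaged in selection buffer, then imaged after 15 min with 500 uM ATP at 22 °C. Five buffer/ATP cycles ran, with NaOH stripping and re-annealing between them. The fluorescence ratio is summed target-cycle over summed buffer-cycle Cy3 intensity per cluster, averaged per switch-domain sequence. Clusters outside 100-1000 RFU were excluded.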

Values marked as one replicate rest on one cluster of the flow cell; about a third of the high ones do not repeat.
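Further: ATP exposure 15 min at 22 °C before imaging.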

In the case of ACGTTGTAAC, the switch fluorescence ratio is 0.976.

Take TTGTGGGTTC: the switch fluorescence ratio came out at 1.03.

Take GGGTGGAAGG: the switch fluorescence ratio was determined as 0.996.

With AGTGCACG, the switch fluorescence ratio came to 1.09.

On to GAATTTTTTT, for which the switch fluorescence ratio amounted to 1.02.

For CTGCGCATTG, the switch fluorescence ratio was found to be 2.52.

Consider ATTTTCGAAG, for which the switch fluorescence ratio was 1.01.

On to GTGATATCTA, for which the switch fluorescence ratio came out at 0.947.

As for AAATACGGAA, the switch fluorescence ratio worked out at 1.08.

Turning to CATGAATCTT, the switch fluorescence ratio is 0.977.

In the case of TGGCGAAT, the switch fluorescence ratio is 1.03.

Regarding TCTTTCGCTG, the switch fluorescence ratio stood at 0.978.

With CGGCCTCTAC, the switch fluorescence ratio worked out at 1.33.

GCTGCATCCG: the switch fluorescence ratio was 1.32.

As for CGCAAATGCA, the switch fluorescence ratio was found to be 1.72.

As for TCGGACCCGA, the switch fluorescence ratio is 1.02.

Take GGGTAAGACC: the switch fluorescence ratio was found to be 0.959.

With GCAAACAGTT, the switch fluorescence ratio worked out at 0.958.

For AATGTACAGC, the switch fluorescence ratio is 1.07.

Regarding CCAAGGTAGG, the switch fluorescence ratio came out at 0.996.

As for AGGGCGTGAA, the switch fluorescence ratio amounted to 1.02.

Turning to TAGTCAAACG, the switch fluorescence ratio is 1.03.

As to AGGAACCCGA, the switch fluorescence ratio came to 1.03.

Turning to ACGGATGACA, the switch fluorescence ratio worked out at 1.05.

On to AGAGGGTGAA, for which the switch fluorescence ratio is 1.02.

Regarding TTTTGACCAC, the switch fluorescence ratio is 0.983.

As for CAGTTCTTGT, the switch fluorescence ratio came to 1.01.

Regarding GTCCGTCGTA, the switch fluorescence ratio is 0.996.

AACAGAGTGT: the switch fluorescence ratio turned out to be 0.992.

On to TGCTACTCCG, for which the switch fluorescence ratio came out at 1.39.

Consider AGAGCTTCCG, for which the switch fluorescence ratio was 1.26.

With GTTGCTAACG, the switch fluorescence ratio worked out at 1.02.

CTATTTAAAA: the switch fluorescence ratio stood at 0.987.

Regarding GAAATGGCTT, the switch fluorescence ratio came out at 0.961.

Consider GAAATGGA, for which the switch fluorescence ratio amounted to 0.998.

As for TCAATGTAGG, the switch fluorescence ratio came to 0.981.

Take TTATCTGATG: the switch fluorescence ratio came out at 0.993.

Regarding TTCAGATATG, the switch fluorescence ratio turned out to be 0.982.

CTTGCCTAAC: the switch fluorescence ratio was determined as 1.96.

As for AGGTGGACTA, the switch fluorescence ratio stood at 0.939.

For the sequence TAGGTAGCCG, the switch fluorescence ratio was 1.14.

On to ATAATAATA, for which the switch fluorescence ratio worked out at 0.945.

As to TTCAGGCAGC, the switch fluorescence ratio came out at 0.996.

In the case of CATATCCGT, the switch fluorescence ratio is 1.04.

Take AGAGGGTTTC: the switch fluorescence ratio stood at 1.02.

With GCGTCGTCTT, the switch fluorescence ratio turned out to be 0.988.

Take ACATGTTTG: the switch fluorescence ratio stood at 0.986.

Turning to TCATTCCTAG, the switch fluorescence ratio amounted to 1.02.

As for TGCGGGGGAC, the switch fluorescence ratio amounted to 1.02.

Consider GCCTCTGATG, for which the switch fluorescence ratio worked out at 1.03.

As to CTGTTATTGC, the switch fluorescence ratio came to 1.04.

On to CTGACAATTA, for which the switch fluorescence ratio was found to be 1.23.

Consider TTCTTTCCCC, for which the switch fluorescence ratio turned out to be 1.09.

Turning to TTTTTTCCAA, the switch fluorescence ratio was 1.05.

As for TCGGACCACC, the switch fluorescence ratio was determined as 1.16.

Turning to GAGAGCAAT, the switch fluorescence ratio was determined as 4.12.

Regarding AGTCATGCGG, the switch fluorescence ratio is 1.03.

TTTCAGCCGT: the switch fluorescence ratio was 1.03.

Take GCGGTTTGGC: the switch fluorescence ratio was determined as 1.06.

On to CGAAGGTTGA, for which the switch fluorescence ratio is 0.969.

Consider CCAGTAAACG, for which the switch fluorescence ratio worked out at 1.02.

As for ACGAATAACG, the switch fluorescence ratio came out at 1.03.

As for ACGGATCCGT, the switch fluorescence ratio worked out at 0.944.

As for GAGTGCCTTG, the switch fluorescence ratio came out at 1.02.

As for TGGGGGCAAT, the switch fluorescence ratio was 0.999.

TGAATAGTCC: the switch fluorescence ratio was 1.09.

As for ACCGACGATC, the switch fluorescence ratio came to 2.05.

In the case of AGGCACGGAG, the switch fluorescence ratio came out at 1.01.

In the case of GGCTACTGTG, the switch fluorescence ratio worked out at 1.03.

With ACCAGGACGA, the switch fluorescence ratio stood at 1.05.

Take GTCGTTTTAT: the switch fluorescence ratio stood at 0.959.

With TAATGAAGAG, the switch fluorescence ratio came to 1.01.

With TGTTAGGCGC, the switch fluorescence ratio came out at 1.03.

For the sequence TGTGAAAATA, the switch fluorescence ratio was found to be 0.966.

Consider GCATAGATAG, for which the switch fluorescence ratio was determined as 1.01.

Take TGTTGTCGAC: the switch fluorescence ratio worked out at 1.01.

As for TTTAATGATG, the switch fluorescence ratio came to 1.11.

For the sequence CCAAGGGAAT, the switch fluorescence ratio stood at 1.08.

With AAGCGTGTAC, the switch fluorescence ratio is 1.05.

In the case of TTGGCCAGCG, the switch fluorescence ratio is 0.995.

As for CGGTGATAGG, the switch fluorescence ratio turned out to be 1.04.

Turning to TTAATGGGAA, the switch fluorescence ratio came to 0.967.

On to CCTATTTGTT, for which the switch fluorescence ratio was found to be 0.976.

AAGGTACA: the switch fluorescence ratio was 1.08.

Turning to AATTAACTTA, the switch fluorescence ratio is 0.96.

On to GCGGTCCGTC, for which the switch fluorescence ratio stood at 0.98.

TTCCATGAGG: the switch fluorescence ratio was 1.

Regarding GAGCGCGTTG, the switch fluorescence ratio worked out at 0.972.

For the sequence TTAGTTTTC, the switch fluorescence ratio was found to be 0.962.

For the sequence TGCCCCCCCC, the switch fluorescence ratio was 1.12.

As to TGTTACGGTA, the switch fluorescence ratio worked out at 1.07.

On to GGCCGAGTGG, for which the switch fluorescence ratio came to 1.04.

As to TTCAATGGTA, the switch fluorescence ratio turned out to be 1.03.

Take GTCTAAGGTG: the switch fluorescence ratio worked out at 1.37.

On to CGTAGTCGGG, for which the switch fluorescence ratio is 1.01.

Turning to CGAAGCCTGC, the switch fluorescence ratio worked out at 2.16.

For the sequence CAGATAACTC, the switch fluorescence ratio is 1.

Turning to CGGAGTGCCT, the switch fluorescence ratio turned out to be 1.01.

Regarding CTCCCTGTTG, the switch fluorescence ratio is 1.26.

For the sequence TCAGCAAAGC, the switch fluorescence ratio turned out to be 1.28.

As to GCTCGGTCCC, the switch fluorescence ratio amounted to 1.01.

As to GTTAGATCTG, the switch fluorescence ratio worked out at 1.

TTAGCCAGGC: the switch fluorescence ratio turned out to be 0.99.

With TGATCCAATT, the switch fluorescence ratio was 0.993.

Regarding AAATCTCAA, the switch fluorescence ratio was 1.02.

Turning to CTGAAAGCGA, the switch fluorescence ratio amounted to 2.02.

With TTTGTGTGCA, the switch fluorescence ratio was determined as 1.04.

Take CGGTGTTCGC: the switch fluorescence ratio was found to be 0.962.

For the sequence TTAAAAGACC, the switch fluorescence ratio came out at 0.983.

With CTCTTTTTAG, the switch fluorescence ratio amounted to 0.997.

As for TTCTGTTATA, the switch fluorescence ratio amounted to 1.01.

GGACGAATA: the switch fluorescence ratio is 1.01.

Turning to TGTAAGCGGG, the switch fluorescence ratio turned out to be 1.02.

On to AATTTCTG, for which the switch fluorescence ratio was 1.

As to ATGGCTCCGC, the switch fluorescence ratio came to 1.66.

On to CGTGCGTAA, for which the switch fluorescence ratio turned out to be 1.77.

On to GCAACTAAGG, for which the switch fluorescence ratio is 0.995.

GAAAGACTGT: the switch fluorescence ratio amounted to 1.02.

In the case of AGTTAATCTG, the switch fluorescence ratio was determined as 0.94.

Regarding CACTATAAT, the switch fluorescence ratio came out at 1.08.
